Laboratory results from patent US20260274921A1 (published 2026).

Molecular target: His-tagged CD47 extracellular domain (ECD) protein (Abclonal, CAT #RP01306) (human, UniProt Q08722 partial chain)
Experiment: ELISA; pH 6.0

UniProt Q08722, sequence (Q08722 19-139): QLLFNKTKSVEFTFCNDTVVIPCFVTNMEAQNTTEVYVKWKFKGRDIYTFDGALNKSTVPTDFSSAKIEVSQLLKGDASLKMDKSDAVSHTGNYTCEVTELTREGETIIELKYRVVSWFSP

B1: SIN-310, SIRPαV1 K53H IgV-IgG1 Fc (Fc fusion)
chain: EEELQVIQPDKSVLVAAGETATLRCTATSLIPVGPIQWFRGAGPGRELIYNQHEGHFPRVTTVSDLTKRNNMDFSIRIGNITPADAGTYYCVKFRKGSPDDVEFKSGAGTELSVRAKPS[human IgG1 Fc not printed]
EC50: 2.28 nM
